Source: PubChem BioAssay AID504706 (National Center for Advancing Translational Sciences (NCATS), 2011)
The whole screen tested about 320,000 compounds, of which about 200 (0.062%) were called active. The inconclusive results got no clear call from the source; some entries with a clear call stand among them for comparison. The call rests on the fitted dose curve; in most records, active means well fitted activation curve with a large enough effect; inconclusive means small, poorly fitted or top-dose-only effect; inactive means no such curve, though single readings can be large or run the other way. No potency is given beside an inconclusive call; the fits are too rough.

Test: qHTS assay for re-activators of p53 using a Luc reporter; further: nearly all actives have a fitted effect of over 45% in size; on activity change, positive = activation: % of control where 0% means no effect
Conditions: H1299 p53-A138V BP100-luciferase reporter, luminescence, 24 h; series mostly up to 92.2 µM; activity change, positive = activation: at the top concentration
Outline: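 H1299 (p53-null), stable ts p53-A138V + BP100-Luc; 1000 cells/well, Opti-MEM/10% FBS; cpd 4 pt, 1:5; 24 h, 37 deg C, 5% CO2; detection reagent 10 min RT; luminescence.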
Potency means the concentration at half of the fitted maximal effect; tags describe the fitted curve by direction and shape.

With CC(C)[C@H](NS(=O)(=O)c1ccc2c(c1)OCCO2)C(=O)OCC(=O)Nc1cc(Cl)ccc1Cl as the molecule, how does the “activity change, positive = activation” value read?
The value was inactive: 3.94%.

Which “activity change, positive = activation” value does the source give for CC1=Nc2cc(C(=O)NCCCN3CCOCC3)ccc2Sc2c(C)ccc(C)c21 here?
Its value is inactive: -0.0317%.

Which Potency does the source give for COc1ccc(/C(N)=N/OC(=O)Cc2ccc(C)cc2)cc1 here?
Its Potency is inconclusive [activator, full curve].

For O=C(OCc1ccc(F)cc1)c1cc2ccccc2cc1O, which Potency is on record?
Its Potency is inconclusive [activator, single point].

Which “activity change, positive = activation” value does the source give for CC(C)(C)OC(=O)N[C@@H](Cc1ccccc1)c1nnc(SCC(=O)c2ccc(Cl)cc2)o1 here?
Its value is inactive: 0.925%.

For COc1cc(CNC(=O)c2cccc(COc3ccc(Cl)cc3)c2)cc(OC)c1, which Potency is on record?
Its Potency is inconclusive [activator, partial curve, poor fit].

For NS(=O)(=O)c1ccc(CNC(=O)Cn2nc(C(F)F)cc2C(F)F)cc1, which Potency is on record?
Its Potency is inconclusive [activator, full curve, poor fit].

Which “activity change, positive = activation” value does the source give for COc1cc(OC)cc(C(=O)Nc2ccc(-n3cnnn3)c(C)c2)c1 here?
The value was inactive: -0.317%.

Which Potency does the source give for O=C(CSc1nnc(NC(=O)c2ccccc2)s1)NC1CCCC1 here?
The Potency was inconclusive [activator, partial curve, poor fit].

For Oc1ccc(-c2csc(Nc3ccccn3)n2)cc1O, which Potency is on record?
Its Potency is inconclusive [activator, partial curve, poor fit].

With O=C(O)C1C2CCC(O2)C1C(=O)NCCC1=CCCCC1 (centres undefined) as the molecule, how does the Potency read?
Its Potency is inconclusive [activator, single point].

With Cc1ccc(NNC(=O)C(O)(c2cccc(C(F)(F)F)c2)c2cccc(C(F)(F)F)c2)cc1 as the molecule, how does the “activity change, positive = activation” value read?
Its value is inactive: -17.3%.

With Cc1cccc(C(=O)N2CCc3cc(-c4nc(NC(=O)Cn5nnc6ccccc6c5=O)sc4C)ccc32)c1 as the molecule, how does the “activity change, positive = activation” value read?
The value was inactive: 1.78%.

With CCN(CC)S(=O)(=O)c1cc(NC(=O)CCn2[nH]c(=O)ccc2=O)ccc1C as the molecule, how does the “activity change, positive = activation” value read?
The value was inactive: 4.02%.

Which Potency does the source give for CCOC(=O)Cc1csc(NC(=O)c2cccs2)n1 here?
Its Potency is inconclusive [activator, full curve, poor fit].

Which Potency does the source give for Cc1cc(N)c(NC2=CC(=O)CC(C)(C)C2)cc1C here?
The Potency was inconclusive [activator, single point].

Which Potency does the source give for Fc1ccc(-n2c(-c3ccc4c(c3)OCO4)n[nH]c2=S)cc1Cl here?
The Potency was inconclusive [activator, full curve, poor fit].

Which Potency does the source give for CC(=O)Nc1nc(C)c(-c2csc(Nc3cccc(C(C)=O)c3)n2)s1 here?
The Potency was inconclusive [activator, full curve, poor fit].

With CCCCn1c(NS(=O)(=O)c2ccc(C)cc2)c(S(=O)(=O)c2ccccc2)c2nc3ccccc3nc21 as the molecule, how does the Potency read?
Its Potency is inconclusive [activator, partial curve, poor fit].

For O=[N+]([O-])c1cc(O)c2ncccc2c1, which “activity change, positive = activation” value is on record?
Its value is inactive: 21.9%.

For CC(=O)Nc1ccc(/C=N/Nc2nc3ccccc3[nH]2)cc1, which Potency is on record?
The Potency was inconclusive [activator, partial curve, poor fit].

For Cn1cccc1C(=O)OCc1csc(-c2ccccc2)n1, which Potency is on record?
Its Potency is inconclusive [activator, partial curve, poor fit].

With CC(C)Cc1cc(C(=O)NCCc2ccccc2)no1 as the molecule, how does the Potency read?
Its Potency is inconclusive [activator, full curve, poor fit].

With O=C(Nc1c(S(=O)(=O)c2ccccc2)csc1Br)c1ccccc1Cl as the molecule, how does the “activity change, positive = activation” value read?
The value was inactive: -2.02%.

With Cc1ccc(S(=O)c2snnc2C)cc1 (centres undefined) as the molecule, how does the “activity change, positive = activation” value read?
The value was inactive: 12.6%.

For COc1cccc(NC(=O)c2ccc(NC(=O)C(C)(C)C)cc2)c1, which Potency is on record?
Its Potency is inconclusive [activator, partial curve, poor fit].

Which “activity change, positive = activation” value does the source give for COc1ccc(-n2c(COc3ccc(Cl)cc3)nnc2SCc2ccc(C#N)cc2)cc1 here?
Its value is inactive: -8.14%.

For CCn1c(N2CCN(CC(=O)c3c[nH]c4ccccc34)CC2)nc2c1c(=O)[nH]c(=O)n2C, which “activity change, positive = activation” value is on record?
The value was inactive: -3.79%.

Which Potency does the source give for Cc1ccc(COc2ccc(Br)cc2/C=N/O)cc1 here?
The Potency was inconclusive [activator, partial curve, poor fit].

For CC(C)c1ccc(/C=C/C(=O)NC2=NCCS2)cc1, which Potency is on record?
Its Potency is inconclusive [activator, partial curve, poor fit].

With CCOC(=O)N1CCN(C(=O)CCCOc2ccccc2)CC1 as the molecule, how does the Potency read?
The Potency was inconclusive [activator, partial curve, poor fit].

For CC(C)(C)OC(=O)NNC(=O)c1ccc(Cl)cc1, which Potency is on record?
Its Potency is inconclusive [activator, single point].

Which Potency does the source give for COc1ccc(NC(=O)c2sccc2C)cn1 here?
Its Potency is inconclusive [activator, partial curve, poor fit].

Which “activity change, positive = activation” value does the source give for COc1ccc(NC(=O)/C(C#N)=C/C=C/c2ccco2)cc1 here?
The value was inactive: -1.56%.

For COc1ccccc1/C=C/C=N/n1c(-c2cc(-c3ccccc3)n[nH]2)n[nH]c1=S, which Potency is on record?
Its Potency is inconclusive [activator, single point].

With COc1ccc(N2C(=O)CC(N3CCN(c4ccccc4)CC3)C2=O)cc1 (centres undefined) as the molecule, how does the Potency read?
Its Potency is inconclusive [activator, single point].

With Cc1nn(C)c(C)c1S(=O)(=O)N1CCCC(C(=O)N2CCN(c3ccc(Cl)cc3)CC2)C1 (centres undefined) as the molecule, how does the “activity change, positive = activation” value read?
Its value is inactive: -32.2%.

With CN(C)c1c2ccccc2nc2c(F)c(F)c(F)c(F)c12 as the molecule, how does the “activity change, positive = activation” value read?
Its value is inactive: 14.2%.

For O=C(N/N=C/c1cccnc1)c1sc2ccccc2c1Cl, which Potency is on record?
Its Potency is inconclusive [activator, single point].

For COc1ccc(OCCCSc2ncccn2)cc1, which Potency is on record?
Its Potency is inconclusive [activator, full curve].

With O=C(Nc1cccc([N+](=O)[O-])c1)Nn1cnnc1 as the molecule, how does the Potency read?
Its Potency is inconclusive [activator, single point].

For Cc1cccc(OCc2nc3ccccc3c(=O)n2N)c1, which Potency is on record?
The Potency was inconclusive [activator, partial curve].

With CSc1nsc2nc(=O)c(/C=C3\C(C)=Nc4ccc(C)cc43)c(N)n12 as the molecule, how does the Potency read?
Its Potency is inconclusive [activator, partial curve, poor fit].

Which Potency does the source give for CCCCNC(=S)Nc1ccc(-c2nc3ccc(C)cc3s2)cc1 here?
The Potency was inconclusive [activator, partial curve, poor fit].

Which Potency does the source give for CC(=O)Nc1ccc(SCCCC(=O)c2ccccc2)cc1 here?
Its Potency is inconclusive [activator, partial curve, poor fit].

Which “activity change, positive = activation” value does the source give for CSC1=C(C#N)C(=O)NC(c2ccccc2O)S1 (centres undefined) here?
The value was inactive: 4.17%.

For Cc1ccc(/C=C/C(=O)c2cc(Br)ccc2OC(=O)c2ccco2)cc1, which Potency is on record?
The Potency was inconclusive [activator, single point].

For CN(C(=O)CSc1nc2ccccc2o1)C1CCCCC1, which Potency is on record?
The Potency was inconclusive [activator, partial curve, poor fit].

With Cc1cccc2sc(NC(=O)C3CCCO3)nc12 (centres undefined) as the molecule, how does the Potency read?
Its Potency is inconclusive [activator, partial curve, poor fit].

With CCCc1nc2oc3c(NCCN(C)C)ncnc3c2c2c1CCCC2 as the molecule, how does the Potency read?
The Potency was inconclusive [activator, single point].

With Cn1nnnc1Sc1ncnc2scc(-c3cccc4ccccc34)c12 as the molecule, how does the Potency read?
Its Potency is inconclusive [activator, single point].

With ClC(Cl)(Cl)c1nc2ccccc2n2nncc12 as the molecule, how does the “activity change, positive = activation” value read?
Its value is inactive: -13.6%.

For CCOc1cc(C2/C(=C(/O)c3ccc(OC(C)C)cc3)C(=O)C(=O)N2CCCOC)ccc1O (centres undefined), which Potency is on record?
The Potency was inconclusive [activator, partial curve, poor fit].

Which “activity change, positive = activation” value does the source give for C/C(=N\NC(=O)Cn1nc(C)c([N+](=O)[O-])c1C)c1ccc(O)cc1 here?
The value was inactive: -2.89%.

With Cc1ccc(NCc2nc3ccccc3n2CCOc2ccccc2)cc1 as the molecule, how does the Potency read?
Its Potency is inconclusive [activator, partial curve, poor fit].

With COc1ccc(/C=C/C(=O)NC(=S)N2CCOCC2)cc1 as the molecule, how does the Potency read?
The Potency was inconclusive [activator, partial curve, poor fit].

Which Potency does the source give for CCOC(=O)c1cc(-c2ccc(OC)cc2)n[nH]1 here?
Its Potency is inconclusive [activator, full curve, poor fit].

With Cc1cc(OCCCn2ccnc2)ccc1[N+](=O)[O-] as the molecule, how does the “activity change, positive = activation” value read?
The value was inactive: 0.334%.

For O=C(Nc1ccc(-n2cnnn2)cc1)C(c1ccccc1)c1ccccc1, which Potency is on record?
Its Potency is inconclusive [activator, single point].

With Cc1ccc(NC(=O)N2CCCc3ccccc32)cc1 as the molecule, how does the “activity change, positive = activation” value read?
Its value is inactive: 7.3%.

For COc1ccc(S(=O)(=O)N2CCC(C(=O)Nc3cc(Cl)ccc3N3CCOCC3)CC2)cc1OC, which “activity change, positive = activation” value is on record?
The value was inactive: -5.1%.

Which Potency does the source give for Cc1ccc2c(c1)C(C)CC(C)(C)N2C(=O)NC1CCCCC1 (centres undefined) here?
The Potency was inconclusive [activator, partial curve, poor fit].

Which “activity change, positive = activation” value does the source give for CCN(CC)CCOC(=O)c1ccc(NC(=O)c2cn(-c3ccccc3)nc2-c2cccs2)cc1 here?
Its value is inactive: 1.94%.

For O=C(COc1ccc(Br)cc1CO)Nc1ccccc1, which Potency is on record?
Its Potency is inconclusive [activator, full curve, poor fit].

Which Potency does the source give for N#C/C(=C1/CCCCCN1)c1nc2ccccc2[nH]1 here?
The Potency was inconclusive [activator, full curve, poor fit].

Which Potency does the source give for Cc1nc(-c2ccc(NC(=O)CC(C)C)cc2)cs1 here?
Its Potency is inconclusive [activator, partial curve, poor fit].

Which Potency does the source give for Fc1cc(Br)ccc1COc1ccc(-c2nnco2)cc1 here?
The Potency was inconclusive [activator, full curve, poor fit].

Which Potency does the source give for COc1ccc2cc3cc(C(=O)N4CCCC(C)C4)oc3nc2c1 (centres undefined) here?
Its Potency is inconclusive [activator, partial curve, poor fit].

Which Potency does the source give for Cc1cccc(C(=O)OCC(=O)N2CCCCCC2)c1O here?
Its Potency is inconclusive [activator, partial curve, poor fit].
